Laboratory results from PubChem BioAssay AID2147 (National Center for Advancing Translational Sciences (NCATS), 2009).
The campaign covered roughly 230,000 compounds. About 3,600 (1.6%) were called active. The shares of active, inactive and inconclusive entries below differ from those in the screen. The call rests on the fitted dose curve; in most records, active means well fitted inhibition curve with a large enough effect (not every such curve was filed as active); inconclusive means small, poorly fitted or top-dose-only effect, or another doubt; inactive means no such curve, though single readings can be large or run the other way. Potencies of inconclusive entries are doubtful fits and often do not repeat.

Target: Lysine-specific demethylase 4E (Homo sapiens) (UniProt B2RXH2)
Sequence of UniProt B2RXH2 (B2RXH2 whole entry, looked up, the tested form may be a part): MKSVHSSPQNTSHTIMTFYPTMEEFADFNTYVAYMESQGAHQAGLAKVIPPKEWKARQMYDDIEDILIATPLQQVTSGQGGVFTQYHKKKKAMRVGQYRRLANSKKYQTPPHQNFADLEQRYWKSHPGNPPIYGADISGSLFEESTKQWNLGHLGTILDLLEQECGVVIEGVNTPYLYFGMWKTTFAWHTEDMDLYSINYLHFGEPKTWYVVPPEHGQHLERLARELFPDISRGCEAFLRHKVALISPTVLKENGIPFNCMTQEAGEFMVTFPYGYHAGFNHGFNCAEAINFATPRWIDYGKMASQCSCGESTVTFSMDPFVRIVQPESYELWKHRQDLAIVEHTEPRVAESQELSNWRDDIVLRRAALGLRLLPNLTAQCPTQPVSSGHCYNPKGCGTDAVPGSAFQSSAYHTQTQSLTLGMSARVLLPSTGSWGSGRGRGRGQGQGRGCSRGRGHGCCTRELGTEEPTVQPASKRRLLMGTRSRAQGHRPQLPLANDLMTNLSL
Experiment: qHTS Assay for Inhibitors of Human Jumonji Domain Containing 2E (JMJD2E)
Details: JMJD2E catalytic domain, FDH-coupled NADH fluorescence (FDH is formaldehyde dehydrogenase); series mostly up to 57.1 µM
Further: nearly all actives have a fitted effect of over 50% in size.
Potency means the concentration at half of the fitted maximal effect; tags describe the fitted curve by direction and shape.

**Q.** With `O=C(/C=C/c1ccc(Cl)c(Cl)c1)n1cccn1` as the compound, how does the Potency read?
**A.** inactive

**Q.** `CC1(C)CC(=O)C2=C(C1)OC1=C(C(=O)CC(C)(C)C1)C2c1ccc(O)cc1O` was tested. Which Potency did it give?
**A.** inconclusive: 39.8 µM [inhibitor, single point]

**Q.** How did the Potency turn out when `CCCN1CC=C2C(C#N)=C(N)C(C#N)(C#N)C(c3cc(OC)ccc3OC)C2C1` (configuration not stated) was run?
**A.** inconclusive: 14.1 µM [inhibitor, partial curve]

**Q.** Which Potency does the source give for `COc1ccc(C)cc1NC(=O)C1CCC(CNc2c(N3CCOCC3)c(=O)c2=O)CC1` (configuration not stated) here?
**A.** inactive

**Q.** Which Potency does the source give for `Cc1c(-n2c(SCC(=O)O)nnc2-c2ccccc2Cl)c(=O)n(-c2ccccc2)n1C` here?
**A.** inconclusive: 25.1 µM [inhibitor, single point]

**Q.** Which Potency does the source give for `O=C(Nn1c(O)c(C=C2N=c3ccccc3=N2)sc1=S)c1cccc(Cl)c1` here?
**A.** inactive

**Q.** For `COc1ccc(C(=O)N/C(=C/c2cccs2)c2nc3ccccc3[nH]2)cc1OC`, which Potency is on record?
**A.** inconclusive: 28.2 µM [inhibitor, single point]

**Q.** How did the Potency turn out when `O=C(CNC(=O)c1ccccc1Br)N/N=C/c1ccccc1O` was run?
**A.** active: 25.1 µM

**Q.** Which Potency does the source give for `COc1ccc(OC)c(S(=O)(=O)N2CCC(C(=O)N3CCOCC3)CC2)c1` here?
**A.** inactive

**Q.** How did the Potency turn out when `Cc1ccc(C(C(=O)NC2CCCC2)N(Cc2ccc(F)cc2)C(=O)c2csnn2)o1` (configuration not stated) was run?
**A.** inactive

**Q.** With `CC(C(=O)O)c1cccc(C(=O)c2ccccc2)c1` (configuration not stated) as the compound, how does the Potency read?
**A.** inconclusive: 25.1 µM [inhibitor, partial curve]

**Q.** For `COCCCNC(=S)N(Cc1ccccc1)Cc1nc2ccccc2c(=O)[nH]1`, which Potency is on record?
**A.** inconclusive: 31.6 µM [inhibitor, partial curve]

**Q.** With `O=C(Nc1nnc(SCC(=O)N2CCCc3ccccc32)s1)c1ccc2ccccc2c1` as the compound, how does the Potency read?
**A.** inconclusive: 22.4 µM [inhibitor, partial curve]

**Q.** How did the Potency turn out when `COc1ccccc1CN(C)C(C)C(=O)Nc1cccc(C(C)=O)c1` (configuration not stated) was run?
**A.** inactive

**Q.** For `Cn1cc2c(=O)n(/N=C/c3ccccc3)cnc2n1`, which Potency is on record?
**A.** inactive

**Q.** With `Fc1cccc2sc(Nc3nnc(-c4ccco4)o3)nc12` as the compound, how does the Potency read?
**A.** inconclusive: 15.8 µM [inhibitor, partial curve]

**Q.** With `Cc1cccc(C)c1OCC(O)CN1CCC(CN2C(=O)c3cccc4cccc(c34)C2=O)CC1` (configuration not stated) as the compound, how does the Potency read?
**A.** inconclusive: 7.08 µM [inhibitor, single point]

**Q.** How did the Potency turn out when `Cc1ccc(N=C2NC(=O)/C(=C/C=C/c3ccco3)S2)cc1` was run?
**A.** active: 25.1 µM

**Q.** With `CC(=O)Nc1ncnc2c1c(-c1ccc(Cl)cc1)nn2C(C)(C)C` as the compound, how does the Potency read?
**A.** inconclusive: 28.2 µM [inhibitor, partial curve]

**Q.** Which Potency does the source give for `COc1ccc2cc(C(=O)N/N=C/c3sc4ccccc4c3O)ccc2c1` here?
**A.** inconclusive: 35.5 µM [inhibitor, single point]

**Q.** `CC12CCC(C(=O)N/N=C/c3ccc(O)cc3O)(OC1=O)C2(C)C` (configuration not stated) was tested. Which Potency did it give?
**A.** active: 25.1 µM

**Q.** With `CCC(Oc1ccccc1)C(=O)Nc1ccc(S(=O)(=O)Nc2cnc3ccccc3n2)cc1` (configuration not stated) as the compound, how does the Potency read?
**A.** inconclusive: 35.5 µM [inhibitor, partial curve]

**Q.** `CC1=CC2=NC(=O)CC(C)(C(=O)N(CC(=O)NC(C)(C)C)Cc3cccs3)N2C=C1` (configuration not stated) was tested. Which Potency did it give?
**A.** inconclusive: 25.1 µM [inhibitor, partial curve]

**Q.** For `COc1ccc(C(=O)Nc2sc3c(c2C(=O)O)CC(C)(C)OC3)cc1`, which Potency is on record?
**A.** inactive

**Q.** `Cc1cccc(NC(=O)c2cc3c(s2)-c2c(C)cccc2OC3)n1` was tested. Which Potency did it give?
**A.** inconclusive: 25.1 µM [inhibitor, partial curve]

**Q.** Which Potency does the source give for `FC(F)(F)c1cccc(N2CCN(CC3CC4C=CC3C4)CC2)c1` (configuration not stated) here?
**A.** inconclusive: 35.5 µM [inhibitor, single point]

**Q.** Which Potency does the source give for `Cc1ccc(NC(=S)Nc2ccc3cn[nH]c3c2)c(C)c1` here?
**A.** inactive

**Q.** How did the Potency turn out when `CC(C)CC(NS(=O)(=O)c1ccc2[nH]c(=O)c(=O)[nH]c2c1)C(=O)O` (configuration not stated) was run?
**A.** inconclusive: 35.5 µM [inhibitor, single point]

**Q.** With `O=C(CCC1N=C2c3ccccc3N=C(SCc3ccccc3Cl)N2C1=O)NCc1ccco1` (configuration not stated) as the compound, how does the Potency read?
**A.** inconclusive: 39.8 µM [inhibitor, single point]

**Q.** How did the Potency turn out when `O=[N+]([O-])c1cccc(Cl)c1CSc1ccccn1` was run?
**A.** inconclusive: 39.8 µM [inhibitor, single point]

**Q.** `COc1ccc(C2C=C(c3ccc(Br)s3)Nc3ncnn32)cc1OC` (configuration not stated) was tested. Which Potency did it give?
**A.** inconclusive: 25.1 µM [inhibitor, single point]

**Q.** Which Potency does the source give for `COC(=O)c1sc(-c2ccc(C(C)(C)C)cc2)cc1NC(=O)c1ccccc1C(=O)O` here?
**A.** inconclusive: 39.8 µM [inhibitor, single point]

**Q.** `O=C(CCl)N(c1ccccc1)C1CCS(=O)(=O)C1` (configuration not stated) was tested. Which Potency did it give?
**A.** inactive

**Q.** Which Potency does the source give for `O=c1c2ccccc2nc2c3ccccc3c(NCc3cccnc3)nn12` here?
**A.** inconclusive: 28.2 µM [inhibitor, partial curve]

**Q.** For `COc1ccc(OCCN(C)Cc2ccccc2)cc1`, which Potency is on record?
**A.** inactive

**Q.** With `CC(C)NC(=O)Nc1ccc(Br)cc1Cl` as the compound, how does the Potency read?
**A.** inactive

**Q.** For `O=C(Nc1cccc(Cl)c1)Nc1nnc(CC2=CCCCC2)s1`, which Potency is on record?
**A.** inactive

**Q.** `CN(C)c1ccc(/C=N/NC(=O)CCC(=O)NCc2ccccc2)cc1` was tested. Which Potency did it give?
**A.** inconclusive: 28.2 µM [inhibitor, partial curve]

**Q.** With `Cc1noc(C)c1CSc1nc2ccccc2nc1NS(=O)(=O)c1ccc(Cl)cc1` as the compound, how does the Potency read?
**A.** inconclusive: 25.1 µM [inhibitor, partial curve]

**Q.** `Cc1ccc(C)c(NC(=O)CSc2nc3c(c(=O)n2C)SC(C)C3)c1` (configuration not stated) was tested. Which Potency did it give?
**A.** inactive

**Q.** `CCCCn1c(/N=C/c2c[nH]c3ccccc23)nc2ccccc21` was tested. Which Potency did it give?
**A.** inactive

**Q.** For `CC1CCC/C(=N\NC(=O)COc2ccccc2Cl)C1` (configuration not stated), which Potency is on record?
**A.** inactive

**Q.** For `COc1ccc(N2CCN(C(=O)CNC(=O)c3ccc(C(C)(C)C)cc3)CC2)cc1`, which Potency is on record?
**A.** inconclusive: 39.8 µM [inhibitor, single point]

**Q.** How did the Potency turn out when `CC1CCCC(NC(=O)c2ccc3c(=O)n(CC4CCCO4)c(=O)[nH]c3c2)C1C` (configuration not stated) was run?
**A.** inconclusive: 17.8 µM [inhibitor, partial curve]

**Q.** `CCOc1ccc(Br)cc1/C(C)=N\NC1=NCCN1` was tested. Which Potency did it give?
**A.** inactive

**Q.** Which Potency does the source give for `Cc1ccc(C)c(S(=O)(=O)N2CCN(CC(=O)Nc3sccc3C#N)CC2)c1` here?
**A.** inconclusive: 6.31 µM [inhibitor, single point]

**Q.** Which Potency does the source give for `CC(C)(C)c1csc(NNC(=O)c2ccc(Br)cc2)n1` here?
**A.** inconclusive: 28.2 µM [inhibitor, single point]
